The whole screen tested about 110,000 compounds, of which about 40 (0.04%) were called active. The inconclusive results got no clear call from the source; some entries with a clear call stand among them for comparison. Calls follow the shape of the dose curve; as a rule, active = well fitted curve in the direction sought with a large enough effect in the signal ratio (not every such curve was filed as active); inconclusive = small, poorly fitted or top-dose-only effect, or a change in a side signal; inactive = flat fitted curve, though single readings scatter; the % refers to the signal ratio.
assay: IkB Signaling; details: ABC-DLBCL IkBa-CBG/CBR dual luciferase ratio (green luciferase fused to IkBa over red control in OCI-Ly3 lymphoma cells), 4 h; IkBa stabilization activation: at 57.1 µM (top of the series), scaled: untreated 0%, proteasome inhibitor 100% unless noted;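 also: 0% = basal untreated cells and 100% = reference inhibitor full response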
Method in brief: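 Curves were fitted separately to fusion (green), unfused (red) and ratio luminescence, then classed by r2, magnitude and activity. Cells: OCI-Ly3, 4 h compound plus doxycycline at 37C; 10 uM MG-132 defined full response.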

SMILES | IkBa stabilization activation
O=C(CCn1c(=O)c2cccn2c2cccnc21)N1CCN(c2cccc(C(F)(F)F)c2)CC1 | inconclusive: 0.902% [signal inhibitor]
O=C(Cn1c(=O)oc2cc(S(=O)(=O)NCc3ccccc3)ccc21)Nc1cccc(F)c1 | inconclusive: 0.0674% [signal inhibitor]
COc1cc(C)nc(N(Cc2ccccc2)S(=O)(=O)c2ccccc2)n1 | inconclusive: 0.965% [signal inhibitor]
CC(=O)N1CCc2cc(S(=O)(=O)NCCC(=O)N3CCc4ccccc4C3)ccc21 | inconclusive: 2.97% [signal inhibitor]
COCC(=O)n1nc(-c2ccco2)nc1NCc1ccccc1Cl | inconclusive: 2.9% [signal inhibitor]
CCOC(=O)c1ccc(NC(=O)Cn2cc(C(=O)C3CC3)c3ccccc32)cc1 | inactive: -1.2%
COc1ccccc1CNC(=O)CCc1c(C)c2cc3c(C)c(C)oc3cc2oc1=O | inconclusive: 2.79% [signal inhibitor]
Cc1c(C(=O)Nc2cccc(C(F)(F)F)c2)sc2nc[nH]c(=O)c12 | inconclusive: -2.4% [signal inhibitor]
Cc1ccc(-n2ncc3c(NCCCN4CCOCC4)ncnc32)cc1C | inconclusive: 0.36% [signal inhibitor]
COCc1nnc(NC(=O)c2cc(OC)c(OC)c(OC)c2)s1 | inconclusive: -1.95% [signal inhibitor]
COc1ccc(C(=O)/C=C/c2cn(CC(O)CN3CCc4ccccc43)c3ccccc23)cc1OC (stereo not drawn) | inconclusive: 2.83% [signal inhibitor]
Cc1ccccc1C(=O)N1CCN(c2ccc(NC(=O)c3ccco3)cc2Cl)CC1 | inconclusive: -13.3% [signal inhibitor]
COc1cccc(CNS(=O)(=O)c2cnc(N)nc2)c1 | inactive: 0.843%
Cc1ccc(-n2c(C)cc(C(=O)OCC(=O)N(CC(C)C)C3CCS(=O)(=O)C3)c2C)cc1 (stereo not drawn) | inconclusive: 5.65% [signal inhibitor]
COCCn1c(=O)cnc2cnc(Nc3cccc(OC)c3)nc21 | inconclusive: -2.23% [signal inhibitor] [at 11.4 µM, scaled: untreated 0%, proteasome inhibitor 100%]
O=C(CSc1nnnn1-c1ccccc1)N1CCc2ccccc2C1 | inactive: 0.0115%
CCc1ccccc1NS(=O)(=O)c1ccc2[nH]cc(C(=O)N(CC(C)C)CC(C)C)c(=O)c2c1 | inconclusive: 4.63% [signal inhibitor]
COc1ccc(NC(=O)C2CCN(S(=O)(=O)c3ccc4c(c3)CCCC(=O)N4)CC2)cc1OC | inactive: -1.79%

— PubChem BioAssay AID445 (National Center for Advancing Translational Sciences (NCATS), 2006)
